These results are taken from paper PMC4336329 (PLoS ONE, 2015).

The structures appear in SMILES notation. About 14,000 (4.5%) of roughly 310,000 compounds showed an effect of 50% or more. The effect is printed as a negative number. Some of the results follow.
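Note: peak tail current of the secondary pulse compared with the same well before compound.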

The target of the test is human ether-à-go-go-related gene (hERG) potassium channel (human, UniProt Q12809). Put plainly: primary screen, population patch clamp on CHO cells stably expressing hERG.
Sequence of human ether-à-go-go-related gene (hERG) potassium channel (Q12809 whole entry, looked up): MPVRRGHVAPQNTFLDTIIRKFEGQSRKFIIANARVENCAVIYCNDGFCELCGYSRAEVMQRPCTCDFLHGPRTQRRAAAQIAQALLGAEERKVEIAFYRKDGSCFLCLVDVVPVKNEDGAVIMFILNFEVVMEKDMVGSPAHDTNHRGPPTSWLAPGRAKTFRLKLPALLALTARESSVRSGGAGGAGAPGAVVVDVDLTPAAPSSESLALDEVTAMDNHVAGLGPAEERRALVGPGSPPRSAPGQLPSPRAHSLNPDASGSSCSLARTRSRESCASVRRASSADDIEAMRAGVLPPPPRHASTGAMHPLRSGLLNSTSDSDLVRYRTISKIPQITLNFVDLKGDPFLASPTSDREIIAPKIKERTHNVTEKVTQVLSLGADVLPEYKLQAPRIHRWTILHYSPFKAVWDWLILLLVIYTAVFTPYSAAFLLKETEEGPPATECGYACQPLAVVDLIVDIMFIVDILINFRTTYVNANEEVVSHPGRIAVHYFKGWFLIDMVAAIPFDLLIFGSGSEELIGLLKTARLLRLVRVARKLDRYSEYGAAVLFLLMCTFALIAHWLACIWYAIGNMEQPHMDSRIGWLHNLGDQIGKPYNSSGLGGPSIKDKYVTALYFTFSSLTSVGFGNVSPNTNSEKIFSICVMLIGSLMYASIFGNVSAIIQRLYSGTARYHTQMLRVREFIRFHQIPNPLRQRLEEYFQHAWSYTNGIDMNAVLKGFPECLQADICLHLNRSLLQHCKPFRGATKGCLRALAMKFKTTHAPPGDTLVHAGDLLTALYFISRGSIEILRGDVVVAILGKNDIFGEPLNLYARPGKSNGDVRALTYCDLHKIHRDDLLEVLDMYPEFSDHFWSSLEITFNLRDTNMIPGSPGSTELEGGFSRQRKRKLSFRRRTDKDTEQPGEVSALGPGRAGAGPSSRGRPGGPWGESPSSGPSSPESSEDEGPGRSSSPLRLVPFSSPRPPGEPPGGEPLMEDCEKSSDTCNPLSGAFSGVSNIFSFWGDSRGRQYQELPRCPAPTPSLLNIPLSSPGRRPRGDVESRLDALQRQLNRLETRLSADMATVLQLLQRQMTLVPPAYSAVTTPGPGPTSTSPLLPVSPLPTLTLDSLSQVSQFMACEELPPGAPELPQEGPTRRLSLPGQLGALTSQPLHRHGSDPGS
Regarding `CCC(=O)c1cn(/C(=C\C(=O)OC(C)(C)C)CCC(OC)OC)cc1CC`, the “hERG current change (%, negative = inhibition) at 10uM” value was -15.1%.

With `CC(C)CSc1nc2c(c(=O)[nH]c(=O)n2C)n1CCc1ccccc1`, the “hERG current change (%, negative = inhibition) at 10uM” value is 10.4%. The result for `COc1ccccc1-n1c(CNC(=O)COc2ccccc2)n[nH]c1=S` reads 13.3%. With `Cc1cccc(C)c1-n1nnnc1-c1cnccc1C(F)(F)F` the figure was 0.675%; with `CCn1cc(C(=O)N[C@H](C(=O)NCCCO)C(C)C)c(=O)c2cc3c(cc21)OCO3`, 19.7%. The result for `O=C(NCCC1CCCCN1S(=O)(=O)c1ccccc1)C(=O)Nc1ccccc1` (stereo not drawn) reads -12.3%. For `CN(C)c1ccc(N=Nc2cccc3ccoc23)cc1`, the “hERG current change (%, negative = inhibition) at 10uM” value was determined as 16.4%. In the case of `COC(=O)[C@@H](NC(=O)c1ccccc1)[C@@H](C)O`, the “hERG current change (%, negative = inhibition) at 10uM” value is on record as 3.99%. Turning to `Cc1cc(C)cc(NC(=S)/C(=C(\[O-])c2ccc(Cl)cc2Cl)[n+]2ccc(C(C)(C)C)cc2)c1`, the “hERG current change (%, negative = inhibition) at 10uM” value is reported as 6.04%. On to `Br.O=C1SC(SC(=Nc2ccccc2)Nc2ccccc2)C(=O)N1c1ccccc1` (stereo not drawn), for which the “hERG current change (%, negative = inhibition) at 10uM” value came out at 11.1%. The result for `CCCn1c(O)c(N=NC(=O)c2cccnc2)c2cc(Br)ccc21` reads -3.7%; that for `COc1cccc(CNC(=O)Cc2ccc(Br)cc2)c1`, 5.59%. The result for `O=C(C1CCOCC1)N1CCCC(N2CCN(c3cccc(Cl)c3)CC2)C1` (stereo not drawn) reads -20.4%.

On to `CC(OC(=O)c1ccc(S(=O)(=O)N(C)C)cc1)C(=O)Nc1ccc(Cl)cn1` (stereo not drawn), for which the “hERG current change (%, negative = inhibition) at 10uM” value amounted to 15.7%. Consider `COC(=O)C1(C)NC(c2ccco2)C2C(=O)N(c3ccc(C)cc3)C(=O)C21` (stereo not drawn), for which the “hERG current change (%, negative = inhibition) at 10uM” value is -22.5%. The result for `Cc1nc(N2CCN(S(=O)(=O)c3ccc(F)cc3)CC2)c2c(-c3cccs3)csc2n1` reads 11.6%; that for `CN(C)C(=O)COc1ccc2ccc(=O)oc2c1`, -5.56%; that for `COC(=O)C(O)(c1ccc(N(C)C(=O)COc2ccccc2)cc1)C(F)(F)F` (stereo not drawn), -0.114%. With `CCOC(=O)N1CCN(S(=O)(=O)c2ccc(C(=O)Nc3sc4c(c3C(N)=O)CCN(CC)C4)cc2)CC1` the figure was 4.36%; with `Oc1ccc2ccccc2c1CNc1ccc(Br)cc1`, 18.7%. Consider `Cc1cc(C)c(OCC(=O)N(Cc2ccc(N(C)C)cc2)C2CCS(=O)(=O)C2)c(C)c1` (stereo not drawn), for which the “hERG current change (%, negative = inhibition) at 10uM” value was -19.5%. With `O=C(Cc1c(F)cccc1Cl)Nc1ccc(S(=O)(=O)N2CCCC2)cc1` the figure was 2.98%; with `Cc1ccc(NC(=O)C2CCCN2S(=O)(=O)c2ccc3c(c2)n(C)c(=O)c(=O)n3C)cc1C` (stereo not drawn), 8.25%.

As to `O=C(Cn1nc(-c2ccc3c(c2)OCCO3)ccc1=O)Nc1cccc(NC(=O)c2ccccn2)c1`, the “hERG current change (%, negative = inhibition) at 10uM” value was 14.3%.

Turning to `CCOC(=O)CN1C(=O)S/C(=C/c2ccc3c(c2)n(C)c(=O)n3C)C1=O`, the “hERG current change (%, negative = inhibition) at 10uM” value came to 2.62%. As for `O=C(NCc1ccccc1Cl)c1ccc(CS(=O)Cc2ccc(Cl)cc2)o1` (stereo not drawn), the “hERG current change (%, negative = inhibition) at 10uM” value was -46.9%.

Consider `O=C(CC1CCCCC1)NCCS(=O)(=O)N1CCN(c2ccccc2)CC1`, for which the “hERG current change (%, negative = inhibition) at 10uM” value worked out at 3.95%. The result for `CS(=O)(=O)N(CC(=O)Nc1cc(Cl)ccc1Cl)c1ccccc1Cl` reads 10.6%; that for `O=C(COc1ccccc1)N1CCN(c2ncccn2)CC1`, 10.5%.

As to `Cc1cc(C)c(S(=O)(=O)n2ccc(-c3ccc(OCCN(C)c4ccccn4)cc3)n2)c(C)c1`, the “hERG current change (%, negative = inhibition) at 10uM” value is on record as 0.97%. Regarding `COc1ccc(CCNC(=O)c2ccc3c(c2)NC(=O)C(N2CCOCC2)S3)cc1OC` (stereo not drawn), the “hERG current change (%, negative = inhibition) at 10uM” value is given as -9.48%. With `Cc1ccc(-c2n[nH]c(=O)c3ccccc23)cc1S(=O)(=O)N(C)C` the figure was 5.85%; with `CN(C)S(=O)(=O)c1cccc2c1C(=O)c1ccccc1C2=O`, -17.2%; with `Cn1c(=O)n(C)c2cc(NC(=O)c3ccc(F)cc3)ccc21`, -1.78%. As for `Cn1c(SCC(=O)NCc2ccc(F)cc2)nc2ccccc21`, the “hERG current change (%, negative = inhibition) at 10uM” value is -36.4%. As for `O=C(NCc1ccc(F)cc1)C1(S(=O)(=O)c2ccc(Cl)cc2)CC1`, the “hERG current change (%, negative = inhibition) at 10uM” value amounted to 9.35%. With `Cc1nn(C)c(C)c1CNC(=O)c1cc2n(n1)C(C(F)(F)F)CC(c1cccs1)N2` (stereo not drawn) the figure was 4.65%. With `Cn1c2ccccc2c2nnc(SCC(=O)Nc3cccc(C(=O)O)c3)nc21` the figure was 5.62%.

With `O=C1C2=C(Nc3ccccc3SC2c2ccco2)c2ccccc21` (stereo not drawn), the “hERG current change (%, negative = inhibition) at 10uM” value was 9.09%. With `O=C(c1cc2ccccc2o1)N1CCN(S(=O)(=O)c2ccc(Cl)s2)CC1`, the “hERG current change (%, negative = inhibition) at 10uM” value amounted to 11.9%. With `CCn1cc(C(=O)Nc2ccc(OC)c(S(=O)(=O)N3CCCCC3)c2)c(=O)c2ccc(C)nc21`, the “hERG current change (%, negative = inhibition) at 10uM” value amounted to 10.5%. The result for `O=C(c1ccc(F)cc1)c1cc2ccccc2o1` reads -0.588%.
